# This is one part of the list.
# B1: Langerin (Homo sapiens), Q9UJ71 (protein)
# chain: STLNAQIPELKSDLEKASALNTKIRALQGSLENMSKLLKRQNDILQVVSQGWKYFKGNFYYFSLIPKTWYSAEQFCVSRNSHLTSVTSESEQEFLYKTAGGLIYWIGLTKAGMEGDWSWVDDTPFNKVQSARFWIPGEPNDAGNNEHCGNIKAPSLQAWNDAPCDITFLFICKRPYVPSEP
# Experiments:
# Assay in all cases: glycan array binding signal (z-score within array); higher = stronger binding
# Conditions in all cases: glycan notation: IUPAC condensed, linker removed; mutation: N288D, K313I
# [1] = target: GlcNAc(b1-3)Gal(b1-4)GlcNAc(b1-3)Gal(b1-4)GlcNAc(b1-3)Gal(b1-4)GlcNAc(b1-3)Gal(b1-4)GlcNAc(b1-2)[GlcNAc(b1-3)Gal(b1-4)GlcNAc(b1-3)Gal(b1-4)GlcNAc(b1-3)Gal(b1-4)GlcNAc(b1-3)Gal(b1-4)GlcNAc(b1-6)]Man(a1-6)[GlcNAc(b1-3)Gal(b1-4)GlcNAc(b1-3)Gal(b1-4)GlcNAc(b1-3)Gal(b1-4)GlcNAc(b1-3)Gal(b1-4)GlcNAc(b1-2)Man(a1-3)]Man(b1-4)GlcNAc(b1-4)[Fuc(a1-6)]GlcNAc
# Method in brief: (§1)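 Columns mapping to the same glycan were averaged after glycan names were converted to IUPAC-condensed notation. The data come from 3228 arrays in the Consortium for Functional Glycomics database, limited to those with an available protein sequence. Binding is reported as a within-array Z-score averaged across arrays of one protein sequence and across linkers.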
# [2] = target: GlcNAc(b1-3)Gal(b1-4)GlcNAc(b1-3)Gal(b1-4)GlcNAc(b1-3)GalNAc
# Method in brief: as §1
# [3] = target: GlcNAc(b1-3)Gal(b1-4)GlcNAc(b1-3)GalNAc
# Method in brief: as §1
# [4] = target: GlcNAc(b1-3)Gal(b1-4)GlcNAc(b1-3)[GlcNAc(b1-3)Gal(b1-4)GlcNAc(b1-3)]GalNAc
# Method in brief: as §1
# [5] = target: GlcNAc(b1-3)Gal(b1-4)GlcNAc(b1-6)[Gal(b1-3)]GalNAc
# Method in brief: as §1
# [6] = target: GlcNAc(b1-3)Gal(b1-4)GlcNAc(b1-6)[GlcNAc(b1-3)Gal(b1-3)]GalNAc
# Method in brief: as §1
# [7] = target: GlcNAc(b1-3)Gal(b1-4)GlcNAc(b1-6)[GlcNAc(b1-3)]Gal(b1-4)GlcNAc
# Method in brief: as §1
# GlcNAc(b1-3)GalNAc = target: GlcNAc(b1-3)GalNAc
# Method in brief: as §1
# GlcNAc(b1-3)Man = target: GlcNAc(b1-3)Man
# Method in brief: as §1
# [8] = target: GlcNAc(b1-3)[GlcNAc(b1-4)][GlcNAc(b1-6)]GlcNAc
# Method in brief: as §1
# [9] = target: GlcNAc(b1-3)[GlcNAc(b1-6)]Gal(b1-4)GlcNAc
# Method in brief: as §1
# [10] = target: GlcNAc(b1-3)[GlcNAc(b1-6)]GalNAc
# Method in brief: as §1
# [11] = target: GlcNAc(b1-4)Gal(b1-4)GlcNAc
# Method in brief: as §1
# GlcNAc(b1-4)GlcNAc = target: GlcNAc(b1-4)GlcNAc
# Method in brief: as §1
# [12] = target: GlcNAc(b1-4)GlcNAc(b1-4)GlcNAc
# Method in brief: as §1
# [13] = target: GlcNAc(b1-4)GlcNAc(b1-4)GlcNAc(b1-4)GlcNAc(b1-4)GlcNAc
# Method in brief: as §1
# [14] = target: GlcNAc(b1-4)GlcNAc(b1-4)GlcNAc(b1-4)GlcNAc(b1-4)GlcNAc(b1-4)GlcNAc
# Method in brief: as §1
# [15] = target: GlcNAc(b1-4)[GlcNAc(b1-6)]GalNAc
# Method in brief: as §1
# [16] = target: GlcNAc(b1-6)Gal(b1-4)GlcNAc
# Method in brief: as §1
# GlcNAc(b1-6)GalNAc = target: GlcNAc(b1-6)GalNAc
# Method in brief: as §1
# [17] = target: GlcNAc6S(b1-3)Gal(b1-4)GlcNAc
# Method in brief: as §1
# Kdn(a2-3)Gal(b1-3)GalNAc = target: Kdn(a2-3)Gal(b1-3)GalNAc
# Method in brief: as §1
# Kdn(a2-3)Gal(b1-3)GlcNAc = target: Kdn(a2-3)Gal(b1-3)GlcNAc
# Method in brief: as §1
# Kdn(a2-3)Gal(b1-4)Glc = target: Kdn(a2-3)Gal(b1-4)Glc
# Method in brief: as §1
# Kdn(a2-3)Gal(b1-4)GlcNAc = target: Kdn(a2-3)Gal(b1-4)GlcNAc
# Method in brief: as §1
# [18] = target: Kdn(a2-3)Gal(b1-4)[Fuc(a1-3)]GlcNAc
# Method in brief: as §1
# Kdn(a2-6)Gal(b1-4)GlcNAc = target: Kdn(a2-6)Gal(b1-4)GlcNAc
# Method in brief: as §1
# [19] = target: Man(a1-2)Man(a1-2)Man(a1-3)Man
# Method in brief: as §1
# [20] = target: Man(a1-2)Man(a1-2)Man(a1-6)[Man(a1-3)]Man
# Method in brief: as §1
# Man(a1-2)Man(a1-3)Man = target: Man(a1-2)Man(a1-3)Man
# Method in brief: as §1
# [21] = target: Man(a1-2)Man(a1-3)[Man(a1-2)Man(a1-6)]Man
# Method in brief: as §1
# [22] = target: Man(a1-2)Man(a1-3)[Man(a1-2)Man(a1-6)]Man(a1-6)[Man(a1-2)Man(a1-2)Man(a1-3)]Man
# Method in brief: as §1
# [23] = target: Man(a1-2)Man(a1-3)[Man(a1-2)Man(a1-6)]Man(a1-6)[Man(a1-2)Man(a1-2)Man(a1-3)]Man(b1-4)GlcNAc(b1-4)GlcNAc
# Method in brief: as §1
# [24] = target: Man(a1-2)Man(a1-3)[Man(a1-6)]Man(a1-6)[Man(a1-2)Man(a1-3)]Man(b1-4)GlcNAc(b1-4)GlcNAc
# Method in brief: as §1
# [25] = target: Man(a1-2)Man(a1-6)[Man(a1-3)]Man(a1-6)[Man(a1-2)Man(a1-2)Man(a1-3)]Man
# Method in brief: as §1
# [26] = target: Man(a1-2)Man(a1-6)[Man(a1-3)]Man(a1-6)[Man(a1-2)Man(a1-2)Man(a1-3)]Man(b1-4)GlcNAc(b1-4)GlcNAc
# Method in brief: as §1
# Man(a1-3)[Man(a1-6)]Man = target: Man(a1-3)[Man(a1-6)]Man
# Method in brief: as §1
# [27] = target: Man(a1-3)[Man(a1-6)]Man(a1-6)[Man(a1-2)Man(a1-3)]Man(b1-4)GlcNAc(b1-4)GlcNAc
# Method in brief: as §1
# [28] = target: Man(a1-3)[Man(a1-6)]Man(a1-6)[Man(a1-3)]Man
# Method in brief: as §1
# [29] = target: Man(a1-3)[Man(a1-6)]Man(a1-6)[Man(a1-3)]Man(b1-4)GlcNAc(b1-4)GlcNAc
# Method in brief: as §1
# [30] = target: Man(a1-3)[Man(a1-6)]Man(b1-4)GlcNAc(b1-4)GlcNAc
# Method in brief: as §1
# [31] = target: Man(a1-3)[Man(a1-6)]Man(b1-4)GlcNAc(b1-4)[Fuc(a1-6)]GlcNAc
# Method in brief: as §1
# Man(a1-6)Man = target: Man(a1-6)Man
# Method in brief: as §1
# Man(b1-4)GlcNAc = target: Man(b1-4)GlcNAc
# Method in brief: as §1
# MurNAc(b1-4)GlcNAc = target: MurNAc(b1-4)GlcNAc
# Method in brief: as §1
binder,measurement,setting,value
B1,glycan array binding signal (z-score),[1],0.125
same,glycan array binding signal (z-score),[2],-0.084
same,glycan array binding signal (z-score),[3],-0.208
same,glycan array binding signal (z-score),[4],-0.21
same,glycan array binding signal (z-score),[5],-0.32
same,glycan array binding signal (z-score),[6],-0.234
same,glycan array binding signal (z-score),[7],5.4
same,glycan array binding signal (z-score),GlcNAc(b1-3)GalNAc,-0.205
same,glycan array binding signal (z-score),GlcNAc(b1-3)Man,-0.209
same,glycan array binding signal (z-score),[8],-0.031
same,glycan array binding signal (z-score),[9],4.87
same,glycan array binding signal (z-score),[10],0.39
same,glycan array binding signal (z-score),[11],-0.084
same,glycan array binding signal (z-score),GlcNAc(b1-4)GlcNAc,-0.267
same,glycan array binding signal (z-score),[12],-0.182
same,glycan array binding signal (z-score),[13],-0.255
same,glycan array binding signal (z-score),[14],-0.123
same,glycan array binding signal (z-score),[15],-0.213
same,glycan array binding signal (z-score),[16],-0.268
same,glycan array binding signal (z-score),GlcNAc(b1-6)GalNAc,-0.196
same,glycan array binding signal (z-score),[17],0.028
same,glycan array binding signal (z-score),Kdn(a2-3)Gal(b1-3)GalNAc,-0.232
same,glycan array binding signal (z-score),Kdn(a2-3)Gal(b1-3)GlcNAc,-0.115
same,glycan array binding signal (z-score),Kdn(a2-3)Gal(b1-4)Glc,-0.212
same,glycan array binding signal (z-score),Kdn(a2-3)Gal(b1-4)GlcNAc,-0.223
same,glycan array binding signal (z-score),[18],0.018
same,glycan array binding signal (z-score),Kdn(a2-6)Gal(b1-4)GlcNAc,-0.196
same,glycan array binding signal (z-score),[19],-0.036
same,glycan array binding signal (z-score),[20],1.19
same,glycan array binding signal (z-score),Man(a1-2)Man(a1-3)Man,-0.15
same,glycan array binding signal (z-score),[21],-0.254
same,glycan array binding signal (z-score),[22],0.217
same,glycan array binding signal (z-score),[23],-0.222
same,glycan array binding signal (z-score),[24],-0.028
same,glycan array binding signal (z-score),[25],-0.085
same,glycan array binding signal (z-score),[26],-0.222
same,glycan array binding signal (z-score),Man(a1-3)[Man(a1-6)]Man,-0.228
same,glycan array binding signal (z-score),[27],-0.13
same,glycan array binding signal (z-score),[28],-0.24
same,glycan array binding signal (z-score),[29],-0.197
same,glycan array binding signal (z-score),[30],-0.209
same,glycan array binding signal (z-score),[31],0.3
same,glycan array binding signal (z-score),Man(a1-6)Man,-0.105
same,glycan array binding signal (z-score),Man(b1-4)GlcNAc,-0.066
same,glycan array binding signal (z-score),MurNAc(b1-4)GlcNAc,-0.292
